PubChem BioAssay AID1508623 (National Center for Advancing Translational Sciences (NCATS), 2021)
Screen size: about 48,000 compounds; about 450 (0.94%) were called active. Roughly 19% stayed inconclusive and do not appear here. The call rests on the fitted dose curve; in most records, active means well fitted inhibition curve with a large enough effect; inconclusive means small, poorly fitted or top-dose-only effect; inactive means no such curve, though single readings can be large or run the other way. This is one part of the list.

Test: Primary qHTS for Identification of Small Molecule Inhibitors of Huntingtin Promoter Activity; further: nearly all actives have a fitted effect of over 50% in size
Conditions: HEK293 HTT promoter firefly luciferase reporter (activity 0% = vehicle and -100% = no light), 24 h; series mostly up to 57.5 µM; activity change, negative = inhibition: at the top concentration
Outline: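 HEK293 Fluc reporter, 2,500 cells/well, 24 h pre-culture; cpds up to 57.5 uM final, 24 h 37 degrees C; Dual-Glo, 10 min RT; normalized vehicle = 0%, zero RLU = -100%.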

Activity change, negative = inhibition, inactive:
CCN(CC)c1nn2c(=O)c(C(=O)NCc3ccccc3Br)cnc2s1 5.32%
O=C(NCCc1ccc(Cl)cc1)c1cc2c(s1)-c1ccccc1OC2 -12.5%
CCOc1ccc(NC(=O)N2CCN(C(=O)c3nsc4ccccc34)CC2)cc1 -13.9%
Cc1ccc(NC(=O)CSc2nccn2-c2ccccc2)cc1 20.6%
O=C(COc1ccccc1Cl)Nc1ccc2nc(SCC(=O)N3CCOCC3)sc2c1 -24.6%
O=S(=O)(c1ccc2nc(Nc3ccc(Br)cc3F)ccc2c1)N1CCCCC1 -12.2%
CCSc1nc2sc3c(c2c(=O)n1-c1ccc(C)c(Cl)c1)CCN(C(C)=O)C3 -25.8%
Cc1ccccc1Cn1cc(S(=O)(=O)c2ccc(F)cc2)c(=O)c2cc3c(cc21)OCO3 -9.68%
Cc1cc(=O)n(Cc2ccc(Br)cc2F)c2c1c(C)nn2-c1ccccc1 0%
Cc1ccc(NC(=O)Cn2c(=O)n(CCCCC(=O)NCCc3ccccc3)c(=O)c3ccccc32)cc1 -6.73%
O=C(CCNS(=O)(=O)c1ccc2c(c1)CCCC(=O)N2)NCc1ccc(Cl)cc1 -29%
Cc1cc(Cl)ccc1OCCSc1nnc(-c2cccs2)o1 -20% [at 11.5 µM]
CCc1nccn1S(=O)(=O)c1cc(Br)ccc1Br -1.7%
COc1ccc(C)cc1NC(=O)CN(C)S(=O)(=O)c1ccc2[nH]c(=O)oc2c1 -12.6%
COC(=O)c1ccc2c(c1)N(CC(=O)Nc1ccc(C)cc1Cl)C(=O)c1ccccc1S2 -17.5%
COC(=O)c1sccc1S(=O)(=O)N(CC(=O)Nc1cc(F)ccc1F)c1ccc(C)c(C)c1 -28.3%
CCc1ccc(-c2[nH]nc3nc(-c4cc(OC)ccc4OC)cc(C(=O)O)c23)cc1 -8.62%
CCn1c(C)c(C)c2cc(C(=O)NCCc3cc(OC)ccc3OC)ccc21 -11.1%
Cc1oc2ncn(CC(C)C)c(=O)c2c1C(=O)NCCCN(C)Cc1ccccc1 1.07%
O=C(Nc1cccc(C(F)(F)F)c1)C1CCCN(S(=O)(=O)c2cccc3nonc23)C1 (configuration not stated) -6.04%
Cc1oc2c(C)c3oc(=O)c(CCC(=O)N4CCCCC4)c(C)c3cc2c1C -13.3%
COc1cc(-c2nnc(SCCOc3ccccc3)o2)cc(OC)c1OC 1.16%
COc1cc(C(C)C)c(Oc2cnc(NC(CO)CO)nc2N)cc1I -11.5%
CCOC(=O)Cn1c(=O)oc2cc(S(=O)(=O)Nc3ccccc3F)ccc21 -17.2%
CCOC(=O)c1c(SCC(=O)Nc2cccc(C)c2C)nc(=O)[nH]c1C -20.1%
COc1ccc(-c2noc(-c3ccc(NCCc4ccccc4)c([N+](=O)[O-])c3)n2)cc1 -6.84%
O=C(Cn1cc(S(=O)(=O)Cc2ccccc2Cl)c2ccccc21)Nc1ccc(F)cc1F -12.8%
